The supplement of paper PMC7125110
± gives the standard error. Variants at the floor of the assay are shown more often than the library holds them.

B1: glmS ribozyme (parent)
chain: AUAAAAGCGCCAGAACUACAGAAAUGUAGUUGACGAGGAGGAGGUUUAUCGAAUUUUCGGCGGAUGCCUCCAAA

Tests used:
Details in all cases: with glucosamine-6-phosphate
[1] = variants of: B1; test: self-cleavage kobs at 40 uM GlcN6P; higher = faster cleavage; RNA array
Method in brief: (§1)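 In situ transcription by E. coli RNA polymerase produced barcoded ribozyme variants on sequenced MiSeq chips, and a hybridised Cy3 probe tracked them at 37 °C. Glucosamine-6-phosphate was flowed in at 40 μM to 10 mM in HEPES/KCl/Mg(OAc)2 buffer. kcat and KM were taken from weighted Michaelis–Menten fits of kobs values from exponential decay fits.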

[2] = variants of: B1; test: self-cleavage kobs at 2500 uM GlcN6P; higher = faster cleavage; RNA array
Method in brief: as §1

[3] = variants of: B1; test: self-cleavage kobs at 640 uM GlcN6P; higher = faster cleavage; RNA array
Method in brief: as §1

[4] = variants of: B1; test: self-cleavage kobs at 10000 uM GlcN6P; higher = faster cleavage; RNA array
Method in brief: as §1

[5] = variants of: B1; test: self-cleavage kobs at 160 uM GlcN6P; higher = faster cleavage; RNA array
Method in brief: as §1

Variant	self-cleavage kobs at 40 uM GlcN6P [1]	self-cleavage kobs at 2500 uM GlcN6P [2]	self-cleavage kobs at 640 uM GlcN6P [3]	self-cleavage kobs at 10000 uM GlcN6P [4]	self-cleavage kobs at 160 uM GlcN6P [5]
AUAAAAGGGCCAGAACUACAGAAAUGUAGUUGACAAGGAGGAGGUUUAUCGAAUUUUGGGCGGAUGCCUCCAAA [C8G G35A C58G]	< 1e-05 s⁻¹	–	–	–	–
AUAAAAGUGCCAUAACUACAGAAAUGUAGUUGACGAGGAGGAGGUUUAUCGAAUUUUCGUCGGAUGCCUCCAAA [C8U G13U G60U]	< 1e-05 s⁻¹	< 1e-05 s⁻¹	–	–	–
AUAAAAGUGCCAGAACUACAGAAAUGUAGUUGACGAGGAGGGGGUUUAUCGAAUUUUCGGCGUAUGCCUCCAAA [C8U A42G G63U]	< 1e-05 s⁻¹	< 1e-05 s⁻¹	< 1e-05 s⁻¹	< 1e-05 s⁻¹	–
AUAAAAGUGCCAGAAUUACAGAAAUGUAGUUGACGAGGAGGAGGUUUAUGGAAUUUUCGACGGAUUCCUCCAAA [C8U C16U C50G G60A G66U]	0.000197 ± 6.5e-05 s⁻¹	–	–	0.000101 ± 2.7e-05 s⁻¹	9.7e-05 ± 4.4e-05 s⁻¹
AUAAAAGGGCCACAACUACAGAAAUGUAGUUGACGAGGAAGAGGUUUAUCGAAUUUUCGGCGGAUGCCUCCAAA [C8G G13C G40A]	< 1e-05 s⁻¹	–	–	< 1e-05 s⁻¹	–
AUAAAAGGGCCAGAACUACAGAAAUGUAGUUGACGAGGAGGACGUUUAUCGAAUUUUCGGCGGAUGCCUCCAAA [C8G G43C]	< 1e-05 s⁻¹	–	–	–	–
AUAAAAGGACCAGAACUACAGAAAUGUAGUUGACGAGGUGGAGGUUGAUCGAAUUUUCGGCGGAUGCUUCCAAA [C8G G9A A39U U47G C68U]	< 1e-05 s⁻¹	–	–	–	–
AUAAAAGUGCCAGAACUACAGAAAUGUAGUUGACGAGGAGGAGGUUUAUCGAAUUUUGGGCGGAUGCCUCCAAA [C8U C58G]	< 1e-05 s⁻¹	–	< 1e-05 s⁻¹	< 1e-05 s⁻¹	< 1e-05 s⁻¹
AUAAAAGGGCCAGAACUACAGAAAUGUAGUUGACGAGGAGGAGGUGUAUCGAAUUUUCCGCGGAUGCCUCCAAA [C8G U46G G59C]	< 1e-05 s⁻¹	–	–	< 1e-05 s⁻¹	< 1e-05 s⁻¹
AUAAAAGGGCCAGAACUACAGAAAUGUAGUUGACGAGGAGGAGGUUUAUCGAAUUUUCGGCGGAGGCCUCCAAA [C8G U65G]	< 1e-05 s⁻¹	< 1e-05 s⁻¹	< 1e-05 s⁻¹	< 1e-05 s⁻¹	< 1e-05 s⁻¹
AUAAAAGGGCCACAACUACAGAAAUGUAGAUGACGACGAGGAGGUUUAUCGAAUUUUCGGCGGAUGCCUCCAAA [C8G G13C U30A G37C]	< 1e-05 s⁻¹	–	–	–	–
AUAAAAGUGCUAGAAUUACAGAAAUGUAGUCGACACGGAGGAGGUUUAUCGAAUUUUCCGCGGAUGCCUCCAAA [C8U C11U C16U U31C G35A A36C G59C]	< 1e-05 s⁻¹	–	–	< 1e-05 s⁻¹	–
AUAAAAGGGCCAGAACUACAGAAAUGUAGUUGACGAGGAGGAGGUUUAUCGAAUUUUCGCCGGAUGCCUCCAAA [C8G G60C]	< 1e-05 s⁻¹	–	–	< 1e-05 s⁻¹	< 1e-05 s⁻¹
AUAAAAGUGCCAGAACUACAGAAAUGUAGUUGACGAGGAGGAGGUUUAUAAAAUUUUCGGCGGAUGCCGCCAAA [C8U C50A G51A U69G]	0.00046 ± 0.00016 s⁻¹	–	–	–	–
AUAAAAGGACCAGAACUACAGAAAUGUAGUUGACGAGGAGGAGGUUUAUAGAAUUUUCGGCGGAUGCCUCCAAA [C8G G9A C50A]	< 1e-05 s⁻¹	–	< 1e-05 s⁻¹	–	–
